Measured values: PubChem BioAssay AID1460 (National Center for Advancing Translational Sciences (NCATS), 2008)
The whole screen tested about 270,000 compounds, of which about 5,800 (2.1%) were called active. Inconclusive means that the source gave no clear call. Such entries were picked first, then a sample of the others. Calls follow the shape of the dose curve; as a rule, active = well fitted inhibition curve with a large enough effect; inconclusive = small, poorly fitted or top-dose-only effect; inactive = flat fitted curve, though single readings scatter. Potencies of inconclusive entries are doubtful fits and often do not repeat.

Molecular target: Microtubule-associated protein tau (Homo sapiens) (UniProt P10636)
Sequence of UniProt P10636 (P10636 whole entry, looked up): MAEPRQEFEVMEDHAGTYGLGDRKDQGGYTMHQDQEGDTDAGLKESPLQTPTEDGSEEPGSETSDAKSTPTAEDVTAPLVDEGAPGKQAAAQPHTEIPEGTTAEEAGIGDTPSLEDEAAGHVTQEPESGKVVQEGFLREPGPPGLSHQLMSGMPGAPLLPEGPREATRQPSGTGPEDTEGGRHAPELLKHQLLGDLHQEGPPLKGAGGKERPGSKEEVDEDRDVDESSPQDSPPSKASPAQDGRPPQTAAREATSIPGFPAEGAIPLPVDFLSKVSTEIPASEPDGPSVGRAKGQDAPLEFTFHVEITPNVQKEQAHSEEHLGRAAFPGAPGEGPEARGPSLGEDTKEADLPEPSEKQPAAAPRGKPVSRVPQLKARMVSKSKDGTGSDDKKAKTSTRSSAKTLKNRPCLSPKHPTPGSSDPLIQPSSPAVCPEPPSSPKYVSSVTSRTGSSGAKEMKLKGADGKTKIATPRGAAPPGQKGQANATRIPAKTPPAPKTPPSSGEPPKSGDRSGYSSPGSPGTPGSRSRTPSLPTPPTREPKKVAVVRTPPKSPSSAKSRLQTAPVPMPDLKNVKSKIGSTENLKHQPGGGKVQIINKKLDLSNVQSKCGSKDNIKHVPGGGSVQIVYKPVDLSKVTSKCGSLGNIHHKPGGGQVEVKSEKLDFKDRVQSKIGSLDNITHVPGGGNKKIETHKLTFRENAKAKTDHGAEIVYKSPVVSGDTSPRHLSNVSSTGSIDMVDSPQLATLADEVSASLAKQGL
Assay: qHTS for Inhibitors of Tau Fibril Formation, Thioflavin T Binding; also: nearly all actives have a fitted effect of over 55% in size
Settings: recombinant tau K18 P301L (four-repeat tau fragment), heparin-induced fibrillization, ThT fluorescence; series mostly up to 57.4 µM; activity, negative = inhibition: at the top concentration
In short: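 Recombinant human tau K18 fragment […] carrying P301L, 15 uM unlabeled plus 0.24 uM Alexa 594-labeled, was fibrillized with 20 uM heparin in 100 mM sodium acetate pH 7 for 6 hr at 37 C; 30 uM ThT fluorescence read after 1 hr.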
% is scaled to controls: 0 for no effect and ±100 for the full control effect; potency is read from the fitted curve at half-maximal effect; tags tell the direction and shape of the fitted curve.

SMILES	Potency	activity, negative = inhibition
CCOC(=O)c1ccc(N2CCCCC2)c(NS(=O)(=O)c2ccc(C)cc2)c1	inconclusive: 44.7 µM [inhibitor, single point]	
CCN(CC)S(=O)(=O)c1cc(NS(=O)(=O)c2cccc(Cl)c2Cl)ccc1C		inactive: 7.51%
CC(=O)N/N=C(\C)c1cccc(C(F)(F)F)c1		inactive: -2.07%
Cc1cc(C)c2nc(Nc3nc(-c4ccccc4)cc(=O)[nH]3)nc(C)c2c1	inconclusive: 17.8 µM [inhibitor, partial curve]	
COc1ccc(Nc2nc(Cl)nc(Nc3ccc(OC)cc3)n2)cc1	inconclusive: 2.24 µM [inhibitor, full curve]	
CCOc1ccc(N2C(=O)CC(N3CCc4ccccc43)C2=O)cc1 (configuration not stated)	inconclusive: 3.55 µM [inhibitor, full curve]	
Cc1ccc(-c2nnn(Cc3nc4ccccc4s3)n2)cc1	inconclusive: 28.2 µM [inhibitor, partial curve]	
O=C1/C(=C/c2ccncc2)SC(=S)N1Cc1ccccc1	inconclusive: 25.1 µM [inhibitor, partial curve]	
COc1cccc(C(=O)Nc2nc(-c3ccc(S(=O)(=O)N4CCOCC4)cc3)cs2)c1	inconclusive: 15.8 µM [activator, partial curve]	
O=C1c2ccccc2C(=O)C12OC2c1ccc(Cl)cc1 (configuration not stated)	active: 3.16 µM	
CCOc1ccccc1/C=N/NC(=O)Cc1csc(Nc2cccc(C(F)(F)F)c2)n1		inactive: -16.6%
N#CCCN(Cc1ccccc1)C(=S)NC(=O)c1ccccc1		inactive: -4.62%
CC(=O)Nc1ccc(NC(=O)c2ccc(COc3ccc4c(C)cc(=O)oc4c3)cc2)cc1	inconclusive: 0.158 µM [inhibitor, full curve]	
O=S(=O)(Nc1nc2ccccc2nc1-[n+]1cccc(N=C([O-])c2ccc(Cl)cc2)c1)c1ccccc1	active: 15.8 µM	
O=C(CSc1nc2ccccc2s1)Nc1nccs1		inactive: -4.05%
COC(=O)C1=C(CSc2nc3c(cc2C#N)CN(C)CC3)OC(N)=C(C#N)C1c1ccccc1F (configuration not stated)	active: 17.8 µM	
COc1ccc(C(=O)NNC(=O)c2cc3cc(OC)ccc3oc2=O)cc1	inconclusive: 3.55 µM [inhibitor, partial curve]	
Cc1cccc(Cn2c(=O)n(CCc3ccccc3)c(=O)c3sc4ccccc4c32)c1		inactive: -0.84%
c1ccc2c(-c3nc4ncccc4o3)cccc2c1	inconclusive: 10 µM [inhibitor, partial curve]	
COc1ccccc1/C=C/C(=O)NCC(=O)N/N=C/c1ccccc1[N+](=O)[O-]	inconclusive: 12.6 µM [inhibitor, partial curve]	
CCOc1ccc2c(c1)nc(SCC(=O)c1ccc(Br)s1)n2C	inconclusive: 31.6 µM [inhibitor, single point]	
Cc1cc(NC(=O)/C(C#N)=C/c2ccc(-c3cccc(C(F)(F)F)c3)o2)n(-c2ccccc2)n1	inconclusive: 10 µM [inhibitor, partial curve]	
COc1cccc(NC(=O)c2sc3nc(C)c(C(=O)Nc4ccc(C)cc4C)c(-c4ccc(Br)cc4)c3c2N)c1	inconclusive: 0.891 µM [inhibitor, partial curve]	

SMILES	Potency	activity, negative = inhibition
COC(=O)N/N=C/c1ccc(-c2cccc(Cl)c2)o1	inconclusive: 10 µM [inhibitor, partial curve]	
CCOP(=O)(c1ccccc1)c1nc(-c2ccccc2C)oc1NCc1ccccc1 (configuration not stated)	inconclusive: 35.5 µM [inhibitor, single point]	
NC(=O)C1(N2CCCCC2)CCN(C(=O)Nc2ccc(Cl)c(Cl)c2)CC1		inactive: -10.7%
CCOc1ccc(-n2c(O)c(/C=N/Nc3nc(C)cc(C)n3)c3ccccc3c2=O)cc1	inconclusive: 8.91 µM [inhibitor, full curve]	
Cc1ccc(-c2cc(C(=O)Nc3ccc(S(=O)(=O)Nc4onc(C)c4C)cc3)[nH]n2)c(O)c1	inconclusive: 17.8 µM [inhibitor, partial curve]	
O=C(O)c1cccc(-n2cccc2/C=C/[N+](=O)[O-])c1	inconclusive: 28.2 µM [inhibitor, single point]	
Cc1ccc(C2C(C#N)=C(N)SC(N)=C2C#N)o1	active: 14.1 µM	
CCN1CC=C2C(C#N)=C(N)C(C#N)(C#N)C(CCc3ccccc3)C2C1 (configuration not stated)	inconclusive: 20 µM [inhibitor, partial curve]	
C/C(=N\NC(=O)c1ccc2c(c1)OCO2)c1ccc(O)cc1	inconclusive: 10 µM [inhibitor, partial curve]	
CCC(=O)N1CCN(c2ccc(NC(=S)NC(=O)C(C)C)cc2)CC1	inconclusive: 25.1 µM [inhibitor, partial curve]	
N#C/C(=C\c1cn(CCOc2ccccc2F)c2ccccc12)C(=O)NCc1cccs1		inactive: 3.57%
CC(C)(C)NC(=O)COC(=O)c1cc(F)c(F)cc1Cl		inactive: -11.5%
O=C(/C=C(\O)c1ccc(Cl)cc1)C(=O)NNC(=O)C(O)(c1ccccc1)c1ccccc1	inconclusive: 12.6 µM [inhibitor, partial curve, poor fit]	
O=C(N/N=C/c1sc2ccccc2c1O)c1ccccc1	inconclusive: 1.26 µM [inhibitor, full curve]	
CCOc1cc(C2CC(=O)N3CN(C4CCCCC4)CSC3=C2C#N)ccc1O (configuration not stated)	active: 14.1 µM	
Cc1ccc(CNC(=O)[C@H](C)[C@H]2C[C@]2(C)[C@H](NC(=O)OCc2ccccc2)c2ccccc2)o1	inconclusive: 17.8 µM [inhibitor, partial curve]	
CCOC(=O)c1c(C)[nH]c(CCC(=O)Nc2ccc(N(CC)CC)cc2C)c1C	inconclusive: 22.4 µM [inhibitor, single point]	
COc1cc2c(cc1OC)C(C)N(C(=O)c1cc3c(s1)-c1c(C)cccc1OC3)CC2 (configuration not stated)	inconclusive: 3.16 µM [inhibitor, full curve]	
COc1ccccc1OCc1nc(-c2ccc([N+](=O)[O-])cc2)no1	inconclusive: 39.8 µM [inhibitor, single point]	
O=C(CN1CCN(S(=O)(=O)c2cc(Cl)ccc2Cl)CC1)Nc1ccc2c(c1)OCCO2		inactive: -14%
c1ccc(N/N=C(\Cc2ncc[nH]2)c2ccccc2)cc1	inconclusive: 25.1 µM [inhibitor, partial curve]	
COc1ccc(C)cc1NC(=O)C(CCSC)NS(=O)(=O)c1ccc2c(c1)oc(=O)n2C (configuration not stated)		inactive: 7.46%
CCOC(=O)C(NC(=O)c1ccccc1Cl)(Nc1sc2c(c1C(N)=O)CCC2)C(F)(F)F (configuration not stated)	inconclusive: 28.2 µM [inhibitor, single point]	

SMILES	Potency	activity, negative = inhibition
COc1ccccc1Nc1nc(-c2sc(NC(=O)CC(C)C)nc2C)cs1	inconclusive: 5.01 µM [inhibitor, partial curve]	
O=C(Cn1c(=O)n(-c2ccccc2)c(=O)c2ccc(C(=O)NCc3ccc4c(c3)OCO4)cc21)Nc1ccc(Br)cc1F		inactive: 16.7%
N#Cc1ncc(-c2ccc3c(c2)OCCOCCOCCOCCOCCO3)nc1C#N	active: 22.4 µM	
c1ccc(CSc2ccc(-c3cccs3)nn2)nc1	inconclusive: 28.2 µM [inhibitor, single point]	
COc1cccc(/C=C(\C#N)c2nc3ccc(C)cc3[nH]2)c1	inconclusive: 5.01 µM [inhibitor, partial curve]	
COc1cc(OC)cc(C(=O)NCc2ccc3c(c2)cc(C)n3C)c1	inconclusive: 22.4 µM [inhibitor, single point]	
COc1cc2c(ccc3cc(OC)c(OC)c(O)c32)cc1O	inconclusive: 25.1 µM [inhibitor, partial curve]	
Cc1nn(-c2ccccc2)c(Cl)c1C(=O)Nc1nnc(C2CCCC2)s1	inconclusive: 31.6 µM [inhibitor, single point]	
O=C(CSc1nnc(COc2ccccc2)n1-c1ccccc1)c1ccccc1	inconclusive: 22.4 µM [inhibitor, single point]	
CNC(=S)N/N=C(\C)c1ccc(C(C)(C)C)cc1	inconclusive: 12.6 µM [inhibitor, partial curve]	
CN1CC=C2C(C#N)=C(N)C(C#N)(C#N)C(Cc3ccccc3)C2C1 (configuration not stated)	inconclusive: 39.8 µM [inhibitor, partial curve, poor fit]	
COC(=O)c1ccc(NC(=S)NNC(=O)c2ccccc2)cc1	inconclusive: 10 µM [inhibitor, partial curve]	
COc1ccc(C(=O)CSc2nnc(-c3ccccn3)n2Cc2ccco2)cc1		inactive: -11.7%
COc1cc(/C=C/CN2CCN(Cc3ccc(C)o3)C(CCO)C2)ccc1O (configuration not stated)	inconclusive: 22.4 µM [inhibitor, partial curve]	
Cc1ccc(NC(=S)/N=C(\N)Nc2nc(C)c3cc(C)c(C)cc3n2)cc1C	inconclusive: 14.1 µM [inhibitor, partial curve]	
CCOC(=O)c1c(C)[nH]c(C)c1S(=O)(=O)N(C)CC(=O)Nc1cc(Cl)ccc1OC		inactive: -16.5%
CC1(C)Cc2c(c(N3CCOCC3)nc3sc4c(NN)ncnc4c23)CS1		inactive: -21.9%
COc1ccc(C)cc1S(=O)(=O)N(CC(=O)NCc1ccc(Cl)cc1)Cc1ccccc1	inconclusive: 44.7 µM [inhibitor, single point]	
COc1ccc(N2CCN(C(=O)c3ccc(Br)cc3)CC2)c([N+](=O)[O-])c1	inconclusive: 25.1 µM [inhibitor, partial curve]	
O=C(CSC1=Nc2ccccc2C2=NC(CCC(=O)NC3CCCCC3)C(=O)N12)Nc1cccc(Cl)c1 (configuration not stated)		inactive: -12.2%
CCOC(=O)c1c(CC(C)C)csc1NC=O		inactive: -9.05%
